Experimental data reported in the RNAGym collection of RNA variant scans (doi:10.1073/pnas.2313332121).
This sample is rich in variants without activity.

B1: TPR 5TU (parent)
chain: GGAUCUUCUCGAUCUAACAAAAAAGACAAAUCUGCCACAAAGCUUGAGAGCAUCUUCGGAUGCAGAGGCGGCAGCCUUCGGUGGCGCGAUAGCGCCAACGUUCUCAACUAUGACACGCAAAACGCGUGCUCCGUUGAAUGGAGUUUAUCAUG

Variants of: B1
Test: polymerase ribozyme fitness, log enrichment relative to wild type (log ratio); higher = more active; in vitro selection for triplet polymerase activity
In short: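 Mutant libraries of both subunits of a heterodimeric triplet polymerase ribozyme were PCR-built, transcribed, and selected once in triplicate, with frozen incubation at −7 °C and capture of gel-excised extended constructs on streptavidin beads before RT-PCR. Illumina sequencing of input and output libraries was filtered to genotypes with ≥10 input reads and ≥1 read per output. Fitness is the logarithm of genotype enrichment over wild-type enrichment, using inverse-variance-weighted replicate averages. The logarithm is base 2.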

Variant | polymerase ribozyme fitness (log ratio)
G84A C132G | -3.59
G83C G117U | -1.62
G84C A142G | -3.03
G84U A97U | -1.54
G83C C93U C96A | -1.71
G84U A107G | ≤ -4.2
G83C U146A | -0.565
G83A G88U U104G C125U A147U U148C A150C | ≤ -4.2
G84U A138G | ≤ -4.2
U82G C87A | ≤ -4.2
C85A C96A C123A G133C | ≤ -4.2
G83C A150G | -2.66
C85A G86A | ≤ -4.2
G84U C93U C105A A137C A138C U144C A150C | ≤ -4.2
C85A C103A A147G | ≤ -4.2
G83U C93A C105G | ≤ -4.2
U82C G84A A107C A110U | ≤ -4.2
C85A A119U | -2.98
G83U G133C | -2.09
G84U C93A U101C A107G G133U G141C | ≤ -4.2
G81C G84A A115C G133U C149U | ≤ -4.2

Variant | polymerase ribozyme fitness (log ratio)
G83C C93G | ≤ -4.2
C85A A107C G136C | ≤ -4.2
G83U G143U | -1.68
C85A C103U G141C A150U | ≤ -4.2
G81A G86A C116A U148C | ≤ -4.2
G81A C105G A121U | -1.1
G83A G92C A97U U134A | ≤ -4.2
G83C U101G A106U | -3.95
G83C G112A | ≤ -4.2
G84U G100A A106U A137C | ≤ -4.2
G81A U144C | -1.41
G83C G86A A106G G124C | ≤ -4.2
G84U G141A | -1.4
U82A C118A G140A | ≤ -4.2
C85A U109G C118U | -1.54
G83A U90G G94C A110G G152U | ≤ -4.2
U82G A97G A98G C118A A119C G140C | ≤ -4.2
U82C C85U C114A | -3.22
G83U A89G C96U C99G G100C C123U U144C | ≤ -4.2
U82A C99A C118U | -1.42
G83A G92U C118G | -1.41

Variant | polymerase ribozyme fitness (log ratio)
G84A A142C | -1.65
G81C G133U | ≤ -4.2
G81U C87A C103G A147C | ≤ -4.2
G83C C85G C103A | ≤ -4.2
G84U G141A A142U | ≤ -4.2
G84A A98G | -2.7
G84A U104C | -0.421
G81U G92C C116A G133C | -3.35
C85A A106G A110U C114A | ≤ -4.2
U82G G86A C96A | -2.04
G81C A91U | ≤ -4.2
G84A C93U | -1.83
U82A C93G C108A U134A | ≤ -4.2
G84U U134A A142C | ≤ -4.2
C85A A106G G140C | ≤ -4.2
G83C G84U A110C | ≤ -4.2
G84C C93A G140C | ≤ -4.2
G84U G124C G140U U146C | ≤ -4.2
G84U U127G | -3.43
C85A C99G A107G | ≤ -4.2
G83A G124C | -2.64

Variant | polymerase ribozyme fitness (log ratio)
U82G C85U C95A A110U | ≤ -4.2
G83C A89U A91G A106U A121U U148C | ≤ -4.2
G83U C96U | -0.875
C85A G112U A113C U148G | ≤ -4.2
G83A G117C U145G | -1.38
G84C A106C A122G A142G A150U | ≤ -4.2
G84A G88A A110U U135C | ≤ -4.2
G83A G128A | -3.83
G84A G112A | ≤ -4.2
G83A C85G U134C A142U | ≤ -4.2
G84A U145C | -0.153
U82A C118U | -0.0134
G83C G88C C149G | ≤ -4.2
G83A G88U A106G G117U G136U | ≤ -4.2
U82G A137C | -2.98
C85A C108U U135A U144C | -4.17
G84C A97G | -1.95
G83U C87U A89C G141A A142G | ≤ -4.2
G84U C96A C103U A113U | ≤ -4.2
U82G G84C | -4.06
